# Paper PMC4336329 (PLoS ONE, 2015)
# Among all 310,000 compounds or so, about 14,000 (4.5%) showed an effect of 50% or more. The effect is printed as a negative number. Some of the results follow.
# Target: human ether-à-go-go-related gene (hERG) potassium channel (human, UniProt Q12809)
# Test: primary screen, population patch clamp on CHO cells stably expressing hERG
# 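Note: peak tail current of the secondary pulse compared with the same well before compound.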
# Chain of human ether-à-go-go-related gene (hERG) potassium channel (Q12809 whole entry, looked up): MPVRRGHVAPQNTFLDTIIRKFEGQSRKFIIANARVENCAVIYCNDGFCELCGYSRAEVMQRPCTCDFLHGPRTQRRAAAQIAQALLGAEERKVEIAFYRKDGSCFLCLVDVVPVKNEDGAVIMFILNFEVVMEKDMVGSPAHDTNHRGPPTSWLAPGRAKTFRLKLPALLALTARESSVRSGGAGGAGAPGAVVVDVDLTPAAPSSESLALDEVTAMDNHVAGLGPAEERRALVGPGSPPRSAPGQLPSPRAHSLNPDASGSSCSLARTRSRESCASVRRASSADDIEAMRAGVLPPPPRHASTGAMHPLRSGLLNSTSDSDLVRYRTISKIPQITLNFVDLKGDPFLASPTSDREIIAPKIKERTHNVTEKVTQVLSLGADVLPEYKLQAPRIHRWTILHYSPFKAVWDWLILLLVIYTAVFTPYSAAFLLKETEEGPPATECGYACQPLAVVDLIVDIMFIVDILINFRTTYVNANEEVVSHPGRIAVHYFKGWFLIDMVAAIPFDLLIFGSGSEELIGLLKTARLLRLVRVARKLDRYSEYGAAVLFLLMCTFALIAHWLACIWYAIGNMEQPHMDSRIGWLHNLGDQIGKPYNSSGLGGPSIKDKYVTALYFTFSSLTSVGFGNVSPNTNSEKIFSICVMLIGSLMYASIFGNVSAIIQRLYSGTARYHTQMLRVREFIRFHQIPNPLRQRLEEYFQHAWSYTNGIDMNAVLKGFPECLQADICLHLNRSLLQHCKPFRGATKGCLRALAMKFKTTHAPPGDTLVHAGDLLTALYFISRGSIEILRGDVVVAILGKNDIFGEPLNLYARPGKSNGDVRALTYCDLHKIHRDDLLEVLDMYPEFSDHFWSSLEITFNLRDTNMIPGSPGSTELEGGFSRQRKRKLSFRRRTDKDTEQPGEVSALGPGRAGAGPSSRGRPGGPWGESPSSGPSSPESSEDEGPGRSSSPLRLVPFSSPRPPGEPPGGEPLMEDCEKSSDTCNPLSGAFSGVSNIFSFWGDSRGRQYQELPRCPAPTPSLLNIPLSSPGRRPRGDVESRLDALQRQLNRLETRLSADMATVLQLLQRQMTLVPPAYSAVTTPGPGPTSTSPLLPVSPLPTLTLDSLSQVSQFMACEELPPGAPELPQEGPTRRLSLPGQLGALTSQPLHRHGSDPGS
row,Compound,"hERG current change (%, negative = inhibition) at 10uM"
1,CC(C)OP(=O)(c1ccc(N(C)C)cc1)C(O)c1ccccc1F (stereo not shown),2.11%
2,Cc1ccccc1-n1c(C)nnc1SCc1cc(=O)oc2ccc3ccccc3c12,-25%
3,O=C1CCCC2=C1C(c1ccncc1)n1c(nc3ccccc31)N2 (stereo not shown),7.66%
4,O=C1N/C(=N/N=C/c2ccc(F)cc2)SC1c1ccccc1 (stereo not shown),13%
5,Cc1ccccc1N1C(S)=C(C#N)C(=O)NC12CCCCC2,-7.37%
6,Cc1nn(Cc2c(F)c(F)c(F)c(F)c2F)c(C)c1NC(=O)c1c(-c2ccccc2)nn(-c2ccccc2)c1C,-0.0218%
7,CC(C)(C)C(=O)Nc1cc2c3c(c1)CC(=O)N3CCC2,18.3%
8,Cc1cccc(NC(=O)CN2C(=O)/C(=C3\SC(=S)N(CC4CCCO4)C3=O)c3ccccc32)c1 (stereo not shown),12.9%
9,CCCCCCc1ccc(N2C[C@H](Cc3ccccc3)[C@@H](CC(=O)NCc3ccc(OC)cc3)C2=O)cc1,-4.42%
10,Cc1occc1C(=O)NCc1nc(-c2ccccc2)no1,7.13%
11,COc1ccc(CNC(=O)C2(c3ccc(Cl)cc3)CC2)cc1,13.7%
12,C[N+](C)(C)CCOP(=O)([O-])OC[C@H](O)CO,15.5%
13,COc1ccc(C(=O)NC2CC(C)(C)Cc3c2cnn3-c2ccccc2C)c(OC)c1OC (stereo not shown),-30.9%
14,CCc1ccc(OC(C)c2nnc(SCC(=O)Nc3ncccc3C)n2C)cc1 (stereo not shown),-14.3%
15,Cc1ccc2occ(/C=N/NC(=O)c3ccncc3)c(=O)c2c1,4.1%
16,CCn1c(SCC(=O)Nc2cc(C)on2)nnc1-c1cccc(C)c1,4.03%
17,O=C(c1ccc(Cl)cc1[N+](=O)[O-])N(Cc1ccccc1)Cc1ccccc1,-12.9%
18,CCOC(=O)N1CCN(S(=O)(=O)c2ccc(OCC)c3ccccc23)CC1,-3.31%
19,CCOC(=O)C1=C(C)N(c2ccc(C)cc2)C(=O)/C1=C\c1cccs1,1.45%
20,CN1CCN(c2nc3c(c(=O)n(C)c(=O)n3C)n2Cc2cccc(Br)c2)CC1,-55.1%
21,Cc1cccc(-c2c3c(=O)n(C)c(=O)n(C)c3cn2C(C)C)c1,2.26%
22,Cc1ccc(S(=O)(=O)Nc2cccc(C(=O)NCC(c3ccco3)N3CCCC3)c2)cc1F (stereo not shown),-38.5%
23,O=C(CCSc1nc(-c2ccc3c(c2)OCO3)cc(C(F)(F)F)n1)NCc1ccccc1,5.55%
24,Nc1cc(S(=O)(=O)c2ccc(O)c(N)c2)ccc1O,13.3%
25,CC1CCN(C(=O)c2ccccc2NC(=O)Cc2ccccc2)CC1,5.89%
26,CCCC(=O)N(Cc1cc(=O)[nH]c2ccccc12)c1ccc(OC)cc1,0.327%
27,C=CC(=O)Nc1sc2c(c1C(N)=O)CCCC2,8.31%
28,CCC(C)n1c(=N)c(C#N)cc2c(=O)n3cccc(C)c3nc21 (stereo not shown),-66.9%

row,Compound,"hERG current change (%, negative = inhibition) at 10uM"
1,C=CCN1C=C2C(=O)C(C)(OC(=O)c3ccco3)C(=O)C(C=C)=C2C=C1C1CC1 (stereo not shown),-13.6%
2,O=C(Cc1cccs1)NCc1cccc(F)c1,14.4%
3,O=C(CSc1nc(-c2ccccc2Cl)ns1)NCc1ccco1,-21.8%
4,COc1cc(OC)c(NC(=O)c2ccc(F)cc2)cc1Cl,17.8%
5,Cc1cc(NC(=O)CSc2nnc(-c3ccc4c(c3)OCCO4)o2)no1,12.6%
6,O=C(CSc1nnnn1-c1ccccc1F)NNC(=O)c1ccco1,24.6%
7,CCCN1CCC(=O)N([C@H](CSc2ccc(OC)cc2)CC(C)C)CC1,-70.8%
8,O=C1C2ON(c3ccccc3)C(c3cccnc3)C2C(=O)N1c1ccc(Cl)c(Cl)c1 (stereo not shown),10.5%
9,Cc1ccc(CC(C(=O)O)C(C)C(=O)Nc2ccc(F)cc2)cc1 (stereo not shown),5.97%
10,Cc1ccc(-c2nc(Nc3ccccc3)n[nH]2)cc1,15.6%
11,Cc1ccccc1OCCCC(=O)Nc1nccs1,6.11%
12,O=C(O)c1ccc(NS(=O)(=O)c2cccc3cccnc23)cc1,-0.717%
13,NC1=NC(=O)/C(=C/c2ccc(Br)cc2)S1,25.1%
14,COc1ccc(NC(=S)Nc2ccc(C)c(Cl)c2)cc1OC,-0.237%
15,COc1cccc(C(=O)N/N=C2/SCC(=O)N2CCc2ccc(OC)c(OC)c2)c1,5.86%
16,O=C(N/N=C/c1ccco1)c1ccc(C(=O)N/N=C/c2ccco2)o1,-0.383%
17,CCOc1ccccc1NC(=O)COc1cccc(-n2cnnn2)c1,-27.2%
18,O=C(NCc1cccnc1)c1ccccc1-c1ccccc1,-0.462%
19,C/C(=N\NC(N)=S)C1(C)CCCCC1,9.27%
20,COCCNC(=O)CSc1nc2cc3c(cc2c(=O)n1CCCC(=O)NCCc1ccc(OC)c(OC)c1)OCO3,28.8%
21,COc1ccc(-c2cc(C(=O)Nc3ccc(Cl)cc3Cl)c3ccccc3n2)cc1OC,9.13%
22,O=C(CNS(=O)(=O)c1ccc(Cl)c(C(F)(F)F)c1)NC1CCCCC1,8.66%
23,Cc1ccsc1C(=O)NNC(=O)Nc1ccc(Cl)c(Cl)c1,3.41%
24,COc1ccc(-n2c(COc3ccc(C)cc3)nnc2SCC(=O)O)cc1,12.9%
25,COc1ccc(C2/C(=C(\O)c3ccc4c(c3)CC(C)O4)C(=O)C(=O)N2Cc2cccnc2)c(OC)c1 (stereo not shown),2.72%
26,Cc1cccc(N(C(=O)c2snc(C(N)=O)c2N)C(C(=O)NCC2CCCO2)c2ccc(N(C)C)cc2)c1C (stereo not shown),5.26%
27,CC(=O)c1sc2nc(-c3ccco3)ccc2c1N,0.505%
